# Test results: PubChem BioAssay AID1457 (National Center for Advancing Translational Sciences (NCATS), 2008)
# About 730 (0.35%) of roughly 210,000 compounds were called active. The inconclusive results got no clear call from the source; some entries with a clear call stand among them for comparison. Calls come from the whole dose curve; as a rule, active = well fitted inhibition curve with a large enough effect; inconclusive = small, poorly fitted or top-dose-only effect; inactive = no such curve, though single readings can be large or run the other way. Potencies of inconclusive entries are doubtful fits and often do not repeat.
# Test: qHTS Assay for Identifying the Cell-Membrane Permeable IMPase Inhibitors: Potentiation with Lithium; note: nearly all actives have a fitted effect of over 50% in size
# Settings: CHO-M1 cells, IP1 TR-FRET (IP-One), carbachol + lithium; series mostly up to 59.4 µM
# Procedure, shortened: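 Test compounds were applied to CHO-M1 cells previously cultured for 16–30 h at 2000 per well. A small lithium amount accompanied them; after 30 min at 37C, IP1 was quantified by TR-FRET.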
# Potency is the fitted concentration of half-maximal effect.
row,Compound,Potency
1,N#Cc1cc2cc3c(cc2nc1SCC(=O)OC1CCCCC1)OCO3,"inconclusive: 28.2 µM [inhibitor, single point]"
2,Cc1nn(-c2ccc(F)cc2)c2c1cc(C#N)c1nc3ccccc3n12,"inconclusive: 2.51 µM [inhibitor, full curve]"
3,Cc1ccc(NC(=O)CSc2nnc(COc3ccccc3C)o2)cc1,"inconclusive: 8.91 µM [inhibitor, partial curve]"
4,Cc1cc(C)nc(NC(=S)Nc2cccc(Cl)c2Cl)c1,"inconclusive: 14.1 µM [inhibitor, single point]"
5,O=C(CCCCCN1C(=O)C2C3C=CC(C3)C2C1=O)Nc1nccs1 (centres undefined),inactive
6,CCC(C)(C)NC(=S)Nc1ccc(-c2nc3ccc(C)cc3s2)cc1,"inconclusive: 11.2 µM [inhibitor, single point]"
7,O=C(COC(=O)c1cccc2ccccc12)Nc1ncc(C(F)(F)F)cc1Cl,"inconclusive: 28.2 µM [inhibitor, single point]"
8,O=C(O)c1cc2c([nH]c1=O)CCCC2,"inconclusive: 14.1 µM [inhibitor, single point]"
9,Cc1cc(Nc2cccc(F)c2)nc(-c2ccccc2O)n1,inactive
10,Cc1ccc2nc(SCC(=O)N3c4ccccc4CC3C)c(C)cc2c1 (centres undefined),"inconclusive: 28.2 µM [inhibitor, single point]"
11,COCc1cc(C)n(CC(=O)Nc2ccc(Cl)cc2Cl)c(=O)c1C#N,"inconclusive: 28.2 µM [inhibitor, single point]"
12,COC(=O)c1cn(NC(=O)c2ccc(OC)c(OC)c2)c(=O)c2ccccc12,"inconclusive: 8.91 µM [inhibitor, partial curve]"
13,COc1ccccc1NC(=O)c1sc2ncn(Cc3ccccc3C)c(=O)c2c1C,"inconclusive: 22.4 µM [inhibitor, single point]"
14,CCc1cc(=O)oc2cc(OC(C)=O)cc(OC(C)=O)c12,"inconclusive: 10 µM [inhibitor, partial curve]"
15,Cc1ccc(C(=O)CSc2nc3ccccc3c(=O)n2-c2ccccc2)s1,"inconclusive: 28.2 µM [inhibitor, single point]"
16,COc1ccc(C(=O)Nc2nc3ccc(S(C)(=O)=O)cc3s2)cc1,"inconclusive: 28.2 µM [inhibitor, single point]"
17,CC(C)C[C@@H](CC(=O)N[C@@H](CCC(=O)O)CC(=O)O)NC(=O)[C@@H]1CCCC[C@H]1NC(=O)C[C@H](CCCN)NC(=O)C[C@H](CO)NC(=O)[C@@H]1CNCC[C@H]1N,inactive
18,Cc1nc2cc(N3CCCCC3)c(NC(=O)c3cccnc3)cc2c(=O)n1Cc1ccccc1,"inconclusive: 22.4 µM [inhibitor, single point]"
19,CN=c1scc(C)n1/N=C/c1ccc(O)c(O)c1O,inactive
20,COc1ccc(N2CCN(c3ccc(N4C(=O)CC(C)C4=O)cc3[N+](=O)[O-])CC2)cc1 (centres undefined),"inconclusive: 3.55 µM [inhibitor, partial curve]"
21,COCCNc1nc(-c2ccc(N(C)C)cc2)nc2ccccc12,inactive
22,Cc1ccc(NCc2nnc(SCC(=O)NCc3ccco3)n2CC2CCCO2)c(C)c1 (centres undefined),inactive
23,Cc1ccc(-c2noc(C3CCCN(C(=O)c4c(F)cccc4F)C3)n2)cc1 (centres undefined),inactive

row,Compound,Potency
1,Cc1cc(N/C=C\C(=O)c2ccc(Cl)c(Cl)c2)no1,"inconclusive: 11.2 µM [inhibitor, partial curve, poor fit]"
2,CCOC(=O)C1=C(C(F)(F)F)Nc2ncnn2C1c1cc(OC)ccc1OC (centres undefined),"inconclusive: 28.2 µM [inhibitor, single point]"
3,Cc1nnc(N2C(=O)C(O)=C(C(=O)c3ccco3)C2c2ccc(C(C)C)cc2)s1 (centres undefined),"inconclusive: 10 µM [inhibitor, partial curve]"
4,Cc1cc(=O)oc2cc3c(cc12)OCCN3,"inconclusive: 14.1 µM [inhibitor, single point]"
5,O=C(Nc1ccc(F)cc1F)c1cc2ncc(Br)cn2n1,"inconclusive: 12.6 µM [inhibitor, single point]"
6,CCCCn1c(NC(=O)c2ccco2)c(S(=O)(=O)c2ccc(C)cc2)c2nc3ccccc3nc21,"inconclusive: 10 µM [inhibitor, partial curve]"
7,COc1ccc(C(=O)Nc2ccc(Cl)cc2C(=O)NCc2ccco2)cc1,"inconclusive: 28.2 µM [inhibitor, single point]"
8,CSc1nsc(SC)c1C(=O)OCC(F)(F)F,"inconclusive: 28.2 µM [inhibitor, single point]"
9,Cc1c(C)c2cc(Cl)c(O)c(CN3CCCC(C)C3)c2oc1=O (centres undefined),"inconclusive: 11.2 µM [inhibitor, single point]"
10,Cc1nc2ccc(NC(=O)Cc3ccsc3)cc2s1,inactive
11,Cc1sc2nc(Cc3ccccc3)[nH]c(=O)c2c1-c1ccccc1,"inconclusive: 22.4 µM [inhibitor, single point]"
12,CCN(CC)c1cnn(C/C(=N\OC)c2ccc(Cl)cc2)c(=O)c1Br,inactive
13,CCN(C(=O)c1ccc(C(C)(C)C)cc1)c1nnc(Cn2nnc3ccccc32)s1,inactive
14,COc1ccc(-c2noc(CCC(=O)Nc3nc4ccccc4s3)n2)cc1,"inconclusive: 28.2 µM [inhibitor, single point]"
15,CC1CCN(C(=O)CCc2nc3cc(S(=O)(=O)N(C)C)ccc3n2C)CC1,"inconclusive: 28.2 µM [inhibitor, single point]"
16,CCc1ccc2c(c1)cc(CN(C(=S)Nc1cccc(C)c1)C1CC1)c1nnnn12,"inconclusive: 22.4 µM [inhibitor, single point]"
17,Cc1nnc(NC(=O)CSc2ncnc3scc(-c4ccccc4)c23)s1,"inconclusive: 10 µM [inhibitor, single point]"
18,COc1ccc2cc(C#N)c(Nc3cccc(F)c3)nc2c1,"inconclusive: 28.2 µM [inhibitor, single point]"
19,CCOC(=O)c1c(NC(=S)Nc2ccc(Cl)cc2)sc(C)c1C,"inconclusive: 11.2 µM [inhibitor, single point]"
20,O=C1C2C3C=CC(C3)C2C(=O)N1c1ccc(N2CCN(c3ccccn3)CC2)c([N+](=O)[O-])c1 (centres undefined),"inconclusive: 3.55 µM [inhibitor, partial curve]"
21,COc1ccc(C(=O)CSc2nnc(CNc3ccc(F)cc3)o2)cc1,inactive
22,Cc1c(C(=O)Nc2ccc(S(N)(=O)=O)cc2)oc2ccc(Cl)cc12,"inconclusive: 11.2 µM [inhibitor, partial curve]"
23,CC(Sc1cnc2ccccc2n1)C(=O)O (centres undefined),active: 12.6 µM

row,Compound,Potency
1,CCOc1ccc(NC(=O)CN2C(=O)C3CC=CCC3C2=O)cc1 (centres undefined),inactive
2,O=C(O)CCSc1nnc(-c2ccc3c(c2)OCO3)o1,"inconclusive: 8.91 µM [inhibitor, single point]"
3,CCNc1ncc2nc(-c3cccs3)c(=O)n(CCc3ccccc3)c2n1,"inconclusive: 11.2 µM [inhibitor, single point]"
4,CS(=O)(=O)C1=NSC2=NC(=O)/C(=C\c3ccc(-c4ccccc4)o3)C(=N)N21,inactive
5,COc1ccc(C(=O)N2C(=O)c3ccc(N)cc3C2=O)cc1,"inconclusive: 11.2 µM [inhibitor, single point]"
6,CCCCCCc1cc2cc(C(=O)NCc3ccccc3)c(=N)oc2cc1O,"inconclusive: 28.2 µM [inhibitor, single point]"
7,COc1cc(O)ccc1C(C)=O,inactive
8,O=C(CSc1oc(-c2ccccc2)nc1S(=O)(=O)c1ccc(F)cc1)NCC1CCCO1 (centres undefined),"inconclusive: 12.6 µM [inhibitor, single point]"
9,CSc1ccccc1C(=O)N1CCN(c2cccc(Cl)c2)CC1,inactive
10,CC1=CC(C)(C)NC(=S)N1c1cccc2ccccc12,inactive
11,COc1ccc2[nH]c3c(=O)n(Cc4ccc(C(=O)N5CCCC5)cc4)c(=S)[nH]c3c2c1,inactive
12,Cc1ccc(-n2ncc3c(=O)n(CC(=O)NC4CCCCC4)cnc32)cc1C,"inconclusive: 28.2 µM [inhibitor, single point]"
13,CCN(CC)CCCNc1oc(-c2ccc(OC)c(OC)c2)nc1C#N,"inconclusive: 7.08 µM [inhibitor, partial curve]"
14,COc1ccccc1-n1cnc2sc(-c3ccccc3)cc2c1=O,"inconclusive: 22.4 µM [inhibitor, single point]"
15,CC1CC(C)CN(CCOCCSc2ccccc2)C1 (centres undefined),inactive
16,CCOC(=O)c1ccc(S(=O)(=O)N2CCN(C3CCCC3)CC2)cc1,inactive
17,CCOC(=O)Cn1c(=S)[nH]c2c(oc3ccc(Cl)cc32)c1=O,active: 8.91 µM
18,C=C(C)COc1ccc(-c2nc(N)nc(C)c2-c2ccc(OC)cc2)c(O)c1,"inconclusive: 28.2 µM [inhibitor, single point]"
19,CCOCCCNc1ncc2c(n1)CC(c1ccc(C)cc1)CC2=O (centres undefined),"inconclusive: 12.6 µM [inhibitor, single point]"
20,Cc1cc(NCCN2CCOCC2)n2nc(C)c(-c3ccc(Cl)cc3)c2n1,"inconclusive: 28.2 µM [inhibitor, single point]"
21,COCCCN1C(=O)C(O)=C(C(=O)c2ccco2)C1c1cccc(Br)c1 (centres undefined),"inconclusive: 14.1 µM [inhibitor, single point]"
22,O=C(Nc1ccc2c(c1)C(=O)NC2=O)c1ccc2ncsc2c1,"inconclusive: 28.2 µM [inhibitor, single point]"
23,Cc1ccc(-n2nc(C)c3c(C)c(CCC(=O)NCc4ccccc4)c(C)nc32)cc1,"inconclusive: 12.6 µM [inhibitor, single point]"
